From PMC4682846 (PLoS ONE, 2015)

How the values were obtained:
C/C(=C\C(=O)O)C(=O)O = assay: purified protein; details: 100 mM MOPS/KOH pH 6.9, 5 mM MgCl2, 5 mM DTT, 37 °C, anoxic, Fe2+/thiol reactivated
C[C@](O)(CC(=O)O)C(=O)O = assay: purified protein; details: 100 mM MOPS/KOH pH 6.9, 5 mM MgCl2, 5 mM DTT, 37 °C, anoxic, Fe2+/thiol reactivated
O=C(O)C[C@H](O)C(=O)O = assay: purified protein; details: 100 mM MOPS/KOH pH 6.9, 5 mM MgCl2, 5 mM DTT, 37 °C
[1] = biological target: T1, Class I fumarase B (FumB) (Escherichia coli, UniProt P14407); details: 100 mM MOPS/KOH pH 6.9, 5 mM DTT, 37 °C, anoxic, Fe2+/thiol reactivated
O=C(O)C(O)C(O)C(=O)O = assay: purified protein; details: 100 mM MOPS/KOH pH 6.9, 5 mM DTT, 37 °C
[2] = biological target: Class I fumarase A (FumA) (Escherichia coli, UniProt P0AC33); details: 100 mM MOPS/KOH pH 6.9, 5 mM MgCl2, 5 mM DTT, 37 °C, anoxic, Fe2+/thiol reactivated
[3] = biological target: Class II fumarase C (FumC) (Escherichia coli, UniProt P05042); details: 100 mM MOPS/KOH pH 6.9, 5 mM MgCl2, 5 mM DTT, 37 °C, oxic
[4] = biological target: T1, Class I fumarase B (FumB); details: 100 mM MOPS/KOH pH 6.9, 5 mM MgCl2, 5 mM DTT, 37 °C, anoxic, Fe2+/thiol reactivated

T1 sequence (P14407 whole entry): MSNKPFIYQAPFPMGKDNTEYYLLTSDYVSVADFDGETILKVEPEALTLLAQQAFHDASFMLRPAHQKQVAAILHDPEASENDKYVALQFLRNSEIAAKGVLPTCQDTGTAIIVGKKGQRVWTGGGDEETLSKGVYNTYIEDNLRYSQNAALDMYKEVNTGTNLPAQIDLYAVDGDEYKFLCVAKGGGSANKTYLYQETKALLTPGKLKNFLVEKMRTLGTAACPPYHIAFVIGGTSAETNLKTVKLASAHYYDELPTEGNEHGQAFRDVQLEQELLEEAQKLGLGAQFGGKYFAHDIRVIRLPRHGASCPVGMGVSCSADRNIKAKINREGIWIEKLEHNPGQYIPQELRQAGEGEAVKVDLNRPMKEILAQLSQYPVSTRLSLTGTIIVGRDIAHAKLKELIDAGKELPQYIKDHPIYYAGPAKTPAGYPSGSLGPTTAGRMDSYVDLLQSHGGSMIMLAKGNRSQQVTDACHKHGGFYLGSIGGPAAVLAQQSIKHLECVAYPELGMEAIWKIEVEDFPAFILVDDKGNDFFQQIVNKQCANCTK
Sequence of UniProt P05042 (P05042 whole entry): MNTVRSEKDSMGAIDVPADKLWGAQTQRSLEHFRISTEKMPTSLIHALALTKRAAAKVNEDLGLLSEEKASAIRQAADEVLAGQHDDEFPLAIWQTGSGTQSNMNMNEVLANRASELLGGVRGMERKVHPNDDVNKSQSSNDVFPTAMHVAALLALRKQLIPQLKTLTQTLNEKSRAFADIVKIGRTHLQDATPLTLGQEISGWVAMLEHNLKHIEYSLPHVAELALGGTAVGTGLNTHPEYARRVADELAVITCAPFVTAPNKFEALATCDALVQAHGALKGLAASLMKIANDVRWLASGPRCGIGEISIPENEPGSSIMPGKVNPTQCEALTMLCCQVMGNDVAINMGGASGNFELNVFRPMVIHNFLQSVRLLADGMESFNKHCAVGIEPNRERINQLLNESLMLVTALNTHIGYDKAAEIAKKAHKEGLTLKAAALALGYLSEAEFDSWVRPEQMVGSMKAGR

| Compound | Km (C/C(=C\C(=O)O)C(=O)O) | Vmax (C/C(=C\C(=O)O)C(=O)O) | kcat/Km (C/C(=C\C(=O)O)C(=O)O) | Km (C[C@](O)(CC(=O)O)C(=O)O) | Vmax (C[C@](O)(CC(=O)O)C(=O)O) | kcat/Km (C[C@](O)(CC(=O)O)C(=O)O) | Km (O=C(O)C[C@H](O)C(=O)O; anoxic, Fe2+/thiol reactivated) | Vmax (O=C(O)C[C@H](O)C(=O)O; anoxic, Fe2+/thiol reactivated) | kcat/Km (O=C(O)C[C@H](O)C(=O)O; anoxic, Fe2+/thiol reactivated) | further results |
| --- | --- | --- | --- | --- | --- | --- | --- | --- | --- | --- |
| Class I fumarase B (FumB) (Escherichia coli K-12) | 100 ± 7 µM | 57.8 µmol/min/mg | 580000 M⁻¹ s⁻¹ | 1040 ± 110 µM | 39.4 µmol/min/mg | 38000 M⁻¹ s⁻¹ | 780 ± 130 µM | 289 µmol/min/mg | 370000 M⁻¹ s⁻¹ | – |
| O=C(O)[C@@H](O)[C@H](O)C(=O)O [(S,S)-(-)-Tartrate] | – | – | – | – | – | – | – | – | – | Km [1]: 800 ± 50 µM |
| Class II fumarase C (FumC) (Escherichia coli K-12) | – | – | – | – | – | – | – | – | – | Km (O=C(O)C(O)C(O)C(=O)O; oxic): 6200 ± 2100 µM; Vmax (O=C(O)C(O)C(O)C(=O)O; oxic): 0.48 µmol/min/mg; kcat/Km (O=C(O)C(O)C(O)C(=O)O; oxic): 65 M⁻¹ s⁻¹; Km (O=C(O)C[C@H](O)C(=O)O; oxic): 930 ± 120 µM; Vmax (O=C(O)C[C@H](O)C(=O)O; oxic): 431 µmol/min/mg; kcat/Km (O=C(O)C[C@H](O)C(=O)O; oxic): 390000 M⁻¹ s⁻¹ |
| Class I fumarase A (FumA) (Escherichia coli K-12) | 220 ± 20 µM | 55.6 µmol/min/mg | 250000 M⁻¹ s⁻¹ | 1080 ± 130 µM | 37.4 µmol/min/mg | 35000 M⁻¹ s⁻¹ | 400 ± 50 µM | 350 µmol/min/mg | 870000 M⁻¹ s⁻¹ | Km (O=C(O)C(O)C(O)C(=O)O; anoxic, Fe2+/thiol reactivated): 2000 ± 200 µM; Vmax (O=C(O)C(O)C(O)C(=O)O; anoxic, Fe2+/thiol reactivated): 1.4 µmol/min/mg; kcat/Km (O=C(O)C(O)C(O)C(=O)O; anoxic, Fe2+/thiol reactivated): 635 M⁻¹ s⁻¹ |
| O=C(O)/C=C/C(=O)O [Fumarate] | – | – | – | – | – | – | – | – | – | Km [2]: 94 ± 15 µM; Km [3]: 280 ± 30 µM; Km [4]: 210 ± 30 µM |

Read-outs that look alike come from different tables or passages of the source.
